SMILES strings stand for the structures. Screen size: about 45,000 compounds; about 200 (0.44%) were called active. Not shown: some 7% with an inconclusive outcome. Calls come from the whole dose curve; as a rule, active = well fitted activation curve with a large enough effect; inconclusive = small, poorly fitted or top-dose-only effect; inactive = no such curve, though single readings can be large or run the other way. Some of the results follow.

The nature of the experiment: qHTS of TDP-43 Inhibitors: NCGC Sytravon Library Screen. Note: 0% is about no effect; nearly all actives have a fitted effect of over 55% in size. Particulars: yeast TDP-43 toxicity rescue, BacTiter-Glo growth, 24 h; series mostly up to 46.1 µM; growth rescue (activation): at the top concentration. The essentials: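 TDP-43-expressing yeast, pregrown in raffinose, seeded at OD600 0.02 in galactose medium with compound for 24 hr at 30 deg C. Growth read by BacTiter-Glo luminescence, so rescue of toxicity appears as activation.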
(In general: Quantitative high-throughput screening tests each substance at several concentrations.)
On to `COc1ccc(C(=O)NNC(=O)c2ccncc2)cc1[N+](=O)[O-]`, for which the “growth rescue (activation)” value is inactive: -2.24%. As for `O=c1[nH]nnc2c1sc1nc(N3CCOCC3)c3c(c12)CCCC3`, the “growth rescue (activation)” value was inactive: 13.4%. For `COc1ccc(CCN2C(=O)NC(NC(=O)C(C)(C)C)(C(F)(F)F)C2=O)cc1OC` (stereo not given), the “growth rescue (activation)” value was inactive: 12.6%. For `CN1CCN(C(=O)CSc2ccc(C(F)(F)F)cc2[N+](=O)[O-])CC1` the value was inactive: -2.77%; for `O=C(OCc1cccc(C(F)(F)F)c1)c1ccc[nH]c1=O`, inactive: -11.9%. To `O=C(O)c1cc(N/N=C/c2ccncc2)ccc1Cl` belongs inactive: -14.4%; to `Cc1cc([N+](=O)[O-])nn1CC(=O)NCCCn1ccnc1`, inactive: 15.6%; to `CC(=O)c1sc(=S)n(-c2ccccc2)c1C`, inactive: 5.55%. For `COCCNC(=O)C(NC(=O)C1CCCCC1)C(C)C` (stereo not given) the value was inactive: 9.08%; for `Cc1ccc(C(=O)NNC(=O)CSc2nnc(C(C)C)n2C)cc1`, inactive: 14.4%; for `CCc1noc(C)c1C(=O)OCC(=O)NCc1ccc(Cl)cc1`, inactive: -10.6%.

With `COc1ccccc1C(=O)Nc1onc(C)c1C#N`, the “growth rescue (activation)” value is inactive: 26.2%. With `CSc1ccc(C(O)c2ncc(-c3ccccc3Cl)[nH]2)cc1` (stereo not given), the “growth rescue (activation)” value was inactive: 4.62%.

Turning to `COc1ccc(OC)c(Nc2nc(-c3ccncc3)nc3ccccc23)c1`, the “growth rescue (activation)” value was inactive: 13.1%. On to `CCCCC(=O)N(c1ccc(C(=O)O)cc1)c1nc(-c2ccc(Cl)cc2)c(CC)s1`, for which the “growth rescue (activation)” value was inactive: 3.52%.

Take `CC(C)(C)NCc1ccc(OCc2cccs2)cc1`: the “growth rescue (activation)” value is inactive: 11.4%. On to `CC(C(=O)OCC(=O)c1ccc([N+](=O)[O-])cc1)N1C(=O)C2C3C=CC(C3)C2C1=O` (stereo not given), for which the “growth rescue (activation)” value was inactive: -9.9%. `COc1ccccc1N1CCN(C(=O)c2cc3n(n2)C(C(F)(F)F)CC(c2ccco2)N3)CC1` (stereo not given): the “growth rescue (activation)” value was inactive: -21.5%.

Take `Cn1c(=O)c2c(n(Cc3ccccc3)c1=O)NC(=O)C2CC(=O)N1CCc2ccccc2C1` (stereo not given): the “growth rescue (activation)” value is inactive: -2.04%. To `Cc1cc(C(=O)COC(=O)Cc2ccc(Cl)cc2)c(C)n1C` belongs inactive: -5.98%; to `CCOC(=O)c1c(C)c(C)n(Cc2ccc(OC)c(OC)c2)c1C`, inactive: 15.9%. On to `Cc1ccc(NC(=O)Cn2nc(-c3ccccc3)nc2-c2ccccc2)c(C)c1`, for which the “growth rescue (activation)” value was inactive: 18.2%. For `COc1ccc(/C=N/N=C2/NC(=O)C(CC(=O)O)S2)cc1OS(=O)(=O)c1ccccc1` (stereo not given) the value was inactive: -5.71%; for `COc1ccc(CNC(=O)CS(=O)CC(=O)O)cc1OC` (stereo not given), inactive: -9.31%; for `O=C(N/N=C/c1ccc2c(c1)OCO2)c1ccc(Cl)cc1Cl`, inactive: 14.6%. For `COc1cc(/C=N/NC(=O)c2ccc(C)nc2)cc([N+](=O)[O-])c1O` the value was inactive: -19.6%; for `Cc1[nH]c2ccccc2c(=O)c1CN1CCCCCC1`, inactive: -4.58%.

Regarding `CCOc1ccccc1C(=O)Nc1cc(-c2nc3cccnc3s2)ccc1C`, the “growth rescue (activation)” value is inactive: 5.28%. As to `Cc1ccc(NC(=O)COC(=O)c2cccnc2)cc1`, the “growth rescue (activation)” value is inactive: -1.98%. On to `Cc1ccc2nc(NC(=O)CN3CCN(c4ccccn4)CC3)sc2c1`, for which the “growth rescue (activation)” value is inactive: -2.11%. To `CNc1ccccc1C(C)(C)c1cc(-c2cccc([N+](=O)[O-])c2)no1` belongs inactive: 21.4%; to `CCc1nn(CC(=O)NCCN2CCN(C)CC2)c(=O)c2cc3occc3n12`, inactive: 19.6%; to `CCOc1ccc(N2CC(C(=O)NCCc3ccc(S(N)(=O)=O)cc3)CC2=O)cc1` (stereo not given), inactive: -5.68%. Take `COc1ccc(C(=O)Nc2ccc(C3=NNC(=O)CC3C)cc2NC(=O)c2ccc(OC)cc2)cc1` (stereo not given): the “growth rescue (activation)” value is inactive: 16.2%.

For `N#Cc1ccc(OC(=O)c2cnccn2)cc1`, the “growth rescue (activation)” value is inactive: -5.36%.

Regarding `COc1ccccc1NC(=O)Cn1cnc2c1c(=O)n(C)c(=O)n2C`, the “growth rescue (activation)” value is inactive: 2.05%.

Turning to `O=C(NCCc1ccncc1)Nc1ccc(F)cc1`, the “growth rescue (activation)” value is inactive: 6.29%. Consider `CC(C)n1nccc1N(Cc1ccc(C#N)cc1)S(=O)(=O)c1ccccc1`, for which the “growth rescue (activation)” value was inactive: 8.82%. In the case of `O=C(CN1CCCCCC1)Nc1ccccc1`, the “growth rescue (activation)” value is inactive: 0.364%.

As for `O=C(O)C1CCCN1C1=NS(=O)(=O)c2ccccc21` (stereo not given), the “growth rescue (activation)” value is inactive: -0.423%. For `CN(C)c1cc(Cl)c2nonc2c1N`, the “growth rescue (activation)” value is inactive: 9.56%. In the case of `O=C(CNC(=O)c1ccccc1Cl)NC1CCN(Cc2ccccc2)CC1`, the “growth rescue (activation)” value was inactive: 4.21%. With `Cc1cccn2c(=O)c3cc(C(=O)NCCc4ccccc4)c(=N)n(CC4CCCO4)c3nc12` (stereo not given), the “growth rescue (activation)” value was inactive: 8.26%. In the case of `CCCc1cc(=O)[nH]c(SCC(=O)Nc2ccccc2C#N)n1`, the “growth rescue (activation)” value was inactive: 15.4%. Consider `Cc1ccc(N(Cc2cc(=O)[nH]c3ccccc23)C(=O)CCl)c(C)c1`, for which the “growth rescue (activation)” value was inactive: 9.33%.

As to `O=C(c1cc2c(s1)CCCC2)N1CCN(CCO)CC1`, the “growth rescue (activation)” value was inactive: -6.35%. On to `O=C(NNC(=O)C1CCCO1)c1ccc([N+](=O)[O-])cc1` (stereo not given), for which the “growth rescue (activation)” value was inactive: 1.95%. Take `O=C(COC(=O)/C=C/c1cccc(Br)c1)NCCC1=CCCCC1`: the “growth rescue (activation)” value is inactive: 19.7%.

For the molecule `N#CC(C#N)=C1C=CC=CN1/C(=C\c1ccco1)C(=O)c1ccc(Br)cc1`, the “growth rescue (activation)” value is inactive: 12.6%. In the case of `O=C(Nc1ccc(N2CCOCC2)cc1)C1=NN(c2ccccc2)C(=O)CC1`, the “growth rescue (activation)” value is inactive: 24.1%. For `CCOC(=O)c1cc2cc([N+](=O)[O-])ccc2oc1=O`, the “growth rescue (activation)” value was inactive: 16.7%. In the case of `CCN(CC)S(=O)(=O)c1ccc(OCC(=O)NC2CCS(=O)(=O)C2)c([N+](=O)[O-])c1` (stereo not given), the “growth rescue (activation)” value was inactive: -8.41%.

As to `CCOC(=O)Cc1csc(NC(=O)Cc2ccc(Br)cc2)n1`, the “growth rescue (activation)” value is inactive: 33.8%.

Consider `COc1ccccc1Nc1ccc([N+](=O)[O-])cn1`, for which the “growth rescue (activation)” value was inactive: 5.99%. For `CC(=O)Nc1ccc(C(=O)CN2C(=O)NC3(CCCc4ccccc43)C2=O)c(F)c1` (stereo not given) the value was inactive: 17.9%.
